Results on one compound are retold here after PubChem BioAssay AID434955 (Southern Research Specialized Biocontainment Screening …, 2010).

The list shows a part of the results. These are further read-outs of the screen, such as a control signal, another cell line or another target. No call is given for them. Compounds called inactive in the main read-out are mostly missing here.

The assay in a line: beta-lactam sensitization of Mtb H37Rv, H37Rv (AID 434955).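 Note: growth measured after seven days incubation then overnight dye step; 0% = bacteria only wells and 100% = bacteria with antibiotic.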 The following applies: M. tuberculosis H37Rv growth with meropenem, percent inhibition; measured here: primary screen without meropenem; at 25 µM.
One may read the inhibition as the change of the read-out against control, counted positive when it falls. Consider `Cc1c(CC(=O)O)c(=O)oc2c(C)c3occ(-c4ccc(Br)cc4)c3cc12`, for which the inhibition is -1.72%.
